# According to paper PMC12136788:
# This is one part of the list.
# T1: UNK ZnF1-3 (human, UniProt Q9C0B0 31-174)
# T1 sequence: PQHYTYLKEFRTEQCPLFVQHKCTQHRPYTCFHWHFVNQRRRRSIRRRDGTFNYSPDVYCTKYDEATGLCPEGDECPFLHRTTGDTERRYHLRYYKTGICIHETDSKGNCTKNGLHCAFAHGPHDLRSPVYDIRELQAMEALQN
# B1: chrX:98862621:98862622:+_ENSMUSG00000034160_ENSMUST00000044475|mus_hu|mus_mus_mus_hu_False|48_78 (ssRNA)
# RNA: GGGAGUUCUACAGUCCGACGAUCCUGCAUCUCCUUUAGAGUGUUUCCCAUAUUAGAAUAAGCAUCAGCAAAGGUAGGACUGAUUCGUAUGGCUUCUUUAUAAUGCAUCAGAGCUUCCUGCAGUUUUCCCUGCUGCUGCAGUACCAACAGAGGAUUGAGCAUCA
# B2: chr17:13113627:13113628:+_ENSMUSG00000068039_ENSMUST00000151287|mus_hu|FALSE|FALSE (ssRNA)
# RNA: GGGAGUUCUACAGUCCGACGAUCAAGCUUCAUUUUUGUUUUUUGCAGGCUGAAGUCAAGGCAAGCAAUUUUUGCAUUUACGAUUCUCUUGGGCAUGCCCUGGGAUCCCACCACACAGUUGAGUGCAUAGCCACUGAUGAGCAUCAACAGAGGAUUGAGCAUCA
# B3: chr11:100882373:100882374:+_ENSMUSG00000019302_ENSMUST00000044721|mus_mus|mus_mus_mus_hu_True|1_38 (ssRNA)
# RNA: GGGAGUUCUACAGUCCGACGAUCUUCCUGGUUUGUGUUGAUUUCCUUCAGUUCAUUUUCAAUCUUCUCAAAAUUGGCCUCUAAGUCAAUCAUGUCCCGAGGGAAGGGAACCUCUGGGUUUUCACCGGUGUCCAUAAUUGGGAUCAACAGAGGAUUGAGCAUCA
# B4: chr14:92597410:92597411:+_ENSG00000165934_ENST00000298875|hu_mus|motif|central (ssRNA)
# RNA: GGGAGUUCUACAGUCCGACGAUCGGAAUCAAUAAUGUCCACAGAGAAGUGUUCAUCCCAGCCACAGUCCAACAAAAACCGGAACUCAUCAACCUGGAGAAGAUAGCAAAGAGCGGACUCUUCUUGAACCCCAGAGAGGGUGGUCAACAGAGGAUUGAGCAUCA
# B5: chr1:93819538:93819539:+_ENSG00000117505_ENST00000370267|hu_hu|motif|central (ssRNA)
# RNA: GGGAGUUCUACAGUCCGACGAUCUUCUUCAGGAAUGCCAAGGUUUUCCAAACGAGAACUGGCCUUUCUUCUUUUUAAUGCGGCUGUUUUACACUCUUGCAAGACUUCUUUUACUUCACUGAUGUAAGAGCCAAAUCCCAAACUCAACAGAGGAUUGAGCAUCA
# B6: chr11:85733470:85733471:-_ENSG00000073921_ENST00000532317|hu_mus|motif|central (ssRNA)
# RNA: GGGAGUUCUACAGUCCGACGAUCUUUUGUGAAAUCGAAUGCAACUUGUCUGUAUGAAACUGCUUUUUCAUUUAAGUAUCGGCGGUACCGUCUAAUAAAUGUAGACAUAUCAUAUCCUUGCAAUCCACUUUUAUCCAAAAAAUUCAACAGAGGAUUGAGCAUCA
# B7: 74666470_74670262_1565_CDS_ENSG00000168411_ENST00000361070|human|control|control (ssRNA)
# RNA: GGGAGUUCUACAGUCCGACGAUCGAGGUAACUGCUAAACGCCAGUCCACGGAUCUGUUUGCCAUGCAUCGGAAUGUACUGACUGCUCUUCAUGUUGGCAGUACUCAACAUCUUAACACCAAAGCCUGGAAGAAAAGAGGCCUGCAACAGAGGAUUGAGCAUCA
# B8: 102192454_102204202_1208_CDS_ENSMUSG00000021182_ENSMUST00000068411|mouse|control|control (ssRNA)
# RNA: GGGAGUUCUACAGUCCGACGAUCGGCAGUCAGUUGUUCCUCCAACAUGGCUUUGGUCUCGAUUAAGAUGAUAUUGUCUUCCCUCAGCUCCUCCAUGCGAGCCUUGUAGAAGUCCACGUCGUGCAGCUUCUCCUUGCAGCGUACCAACAGAGGAUUGAGCAUCA
# B9: chr7:34932688:34932689:-_ENSMUSG00000052997_ENSMUST00000102746|mus_mus|motif|central (ssRNA)
# RNA: GGGAGUUCUACAGUCCGACGAUCCAAGAGCUUCUUUCUUGGGUUUGGCUGCUUAUUCAAAAAAAUAGUUCUACACUGGUCGGUUUUUCCAGAUAAAAUCUUUAAUCCUUCCAACACUAUCAAGCCGGCGAUCACUGCAUUAGUCAACAGAGGAUUGAGCAUCA
# B10: chr6:17615347:17615348:+_ENSMUSG00000015733_ENSMUST00000015877|mus_mus|motif|central (ssRNA)
# RNA: GGGAGUUCUACAGUCCGACGAUCAUCUGCUCAUGCAAUUUUCAUUUAUGCAUUCUGCAUCUCUUUGCCAAUCUUGUAGCGGAGGAUCUUGUUCCAGUCGAUCUUAGUACGUGUCACUGGCAACUGUCGACGUAAGGCUUUGAACAACAGAGGAUUGAGCAUCA
# B11: chr10:33190432:33190433:-_ENSG00000150093_ENST00000302278|hu_mus|hu_hu_hu_mus_True|18_108 (ssRNA)
# RNA: GGGAGUUCUACAGUCCGACGAUCUACAUUUUCAAAACCUGCAUGUGAAUAAAACCCUGGCCACAGAGCCCCAAAACUACCCUACUGUGACUAAGAUGCUGCUGCUGUGAGCUUGGUUGUUGUGGGACCGCCUGAGUAGGAUUCCAACAGAGGAUUGAGCAUCA
# B12: 65275549_65275669_1531_CDS_ENSMUSG00000051675_ENSMUST00000050850|mouse|control|control (ssRNA)
# RNA: GGGAGUUCUACAGUCCGACGAUCGCCCCAUGGUUUGCUCAGCUGGCUCCUGUGACAGGCCACACAGUGGCCAUCCAUGGUAUAGACUUUAAGGGAGUUGUCGUAGCUAUCAGUGACACCAAUCAGCCCAUGGCAGUUCAUGGCCAACAGAGGAUUGAGCAUCA
# B13: chr2:37459336:37459337:+_ENSG00000003509_ENST00000002125|hu_mus|FALSE|FALSE (ssRNA)
# RNA: GGGAGUUCUACAGUCCGACGAUCCAAAACCUCCUUCAUGUACUCGGCCACAGUGAUGGGACCUGUAGACUUUAUUUUGUACAUAAGAUGCCGCAGCAUCGGUGUCACCUGGUUGCUUUCUGCCGGCUCAUUCCCGGAGCUGUACAACAGAGGAUUGAGCAUCA
# B14: 54996932_54997052_332_3pUTR_ENSMUSG00000032307_ENSMUST00000059555|mouse|control|control (ssRNA)
# RNA: GGGAGUUCUACAGUCCGACGAUCAUGACCCAGCCCCUUUCCGCCCCACACCGGGGCUCCGCGCCCAGCACCCGCCGCUCGCCCCGAGGAUUUGGGCCGGCGGCACCGCACGAGGAUGAACCUGAGCUCCCCUGCGCGCCUCUGCAACAGAGGAUUGAGCAUCA
# B15: chr6:74354288:74354289:-_ENSG00000119899_ENST00000355773|hu_mus|FALSE|FALSE (ssRNA)
# RNA: GGGAGUUCUACAGUCCGACGAUCACUCAGGUUCACCCGUAAGGCAUAGAGAACGAAGAAACCACAGAACGCCAAAAUCGCUAAGUUGUACCGAGCAGAGCAGCACACUGGAGCCGCUUCGGUCUGCCGGGCGCCCGGCAGGAGCAACAGAGGAUUGAGCAUCA
# B16: chr5:54662584:54662585:+_ENSG00000039123_ENST00000230640|hu_hu|motif|central (ssRNA)
# RNA: GGGAGUUCUACAGUCCGACGAUCAAUUUCUUCUACACGUAGUAAGUUCAAAACCAUGUUGUAGGUCAAAUGGAAAGCACGGUUUAGAGGAUCAGCGGAGCCCUUAAGUAAUUGUUUUCCAAUUGUUGGGCUCAUCUUUUCAUCCAACAGAGGAUUGAGCAUCA
# B17: 45545573_45577520_468_3pUTR_ENSMUSG00000025217_ENSMUST00000065601|mouse|control|control (ssRNA)
# RNA: GGGAGUUCUACAGUCCGACGAUCAAAAUACUUGACACACAGCUCCUUUUCCUUCUCAUAGCUUGCUGAGAGUUUCCGCUGCUUGGGCACAAUCAUGCUGGAAGUGCCAUUGGCAAGUUUGGCUUUGGCCACACAAUUUUCAGUCAACAGAGGAUUGAGCAUCA
# B18: chr4:25749455:25749456:-_ENSG00000091490_ENST00000264868|hu_hu|hu_hu_hu_mus_False|28_28 (ssRNA)
# RNA: GGGAGUUCUACAGUCCGACGAUCGCACUAUGACCUCUAGAAAAAUCCACAGGGGGAAAAAAUGUAAACCAAUGUACAAUGUUAUCGCCUUCCCUGUGUGUGGAGUGACAAACAAUUGGCUCCUUCUAGCUGCUGGAUUUGGGACAACAGAGGAUUGAGCAUCA
# B19: chr7:149068622:149068623:-_ENSMUSG00000025139_ENSMUST00000001950|mus_hu|mus_mus_mus_hu_False|58_68 (ssRNA)
# RNA: GGGAGUUCUACAGUCCGACGAUCGUGAGGCCUCUGAGUGUGGCUUGUGGUCUGUCCUGGGUUAGAGCUGCUGGUAACACUAAGUGGACCAUCUAGAACGUUCCAGUCCCGCCUGACACCUUCAUUCCCAAUGGAGAAGAAAUCCAACAGAGGAUUGAGCAUCA
# B20: chr7:65705844:65705845:+_ENSG00000169902_ENST00000304842|hu_mus|hu_hu_hu_mus_False|18_28 (ssRNA)
# RNA: GGGAGUUCUACAGUCCGACGAUCAAACGGAUCUUUGUUACAUAAAUAAGGUGCCGGCUCCCCAUGUUUAACAAUGACCUCCAGAAGGAAGGCUUGCAUGGCAGAAUCCAGCACUUCAUCAGUAACACCCGCCUCAUCCAAGCGCAACAGAGGAUUGAGCAUCA
# B21: chr11:110355629:110355630:+_ENSMUSG00000020623_ENSMUST00000020949|mus_hu|motif|central (ssRNA)
# RNA: GGGAGUUCUACAGUCCGACGAUCGUGAAUGACAGACAGCUUACUAUGUAAAUGUUCUAAUGCUUUUACAAUAGAAACUGCGGUUUUCCCUAAGAUGUCCUCUGGAAUUGUCUGGCCUUUAUCAAUAACUUGUUUGUAGAAUUUCAACAGAGGAUUGAGCAUCA
# B22: chr2:61711136:61711137:-_ENSG00000082898_ENST00000401558|hu_mus|FALSE|FALSE (ssRNA)
# RNA: GGGAGUUCUACAGUCCGACGAUCAACAUUCCUCAUAGUAUGUUUAAAAGCCCAAAUAAUAGAAUCCAAAACCAGCUUGAACUGUGCAGGUGGAAUAGCUAGGAAUGCUGGGAAACAGUGAGAAUUGACAGCUUGAAGUAAUAACAACAGAGGAUUGAGCAUCA
# Target: T1, UNK ZnF1-3
# Assay: nsRBNS (natural sequence RNA bind-n-seq); RBNS binding buffer (assumed for nsRBNS): 25 mM Tris pH 7.5, 150 mM KCl, 3 mM MgCl2, 0.01% Triton X-100, 500 ug/ml BSA, 20 U/ml SUPERase-In, 4 C; UNK is unkempt and MSI1 is Musashi-1; names of the RNAs are library labels; protein concentration not given here; high values mean tight binding
row,Binder,binding signal [enrichment R]
1,B1,1.15
2,B2,0.859
3,B3,0.643
4,B4,1.02
5,B5,0.479
6,B6,0.367
7,B7,0.899
8,B8,0.694
9,B9,1.16
10,B10,0.519
11,B11,1.28
12,B12,1.25
13,B13,0.78
14,B14,1.08
15,B15,1.49
16,B16,0.476
17,B17,0.796
18,B18,1.06
19,B19,0.92
20,B20,0.214
21,B21,0.715
22,B22,1.91
